Test results reported in patent US20220313819A1, “COMBINATION THERAPY FOR THE TREATMENT OF SOLID AND HEMATOLOGICAL CANCERS” (Arch Oncology, Inc., priority 2019, published 2022).

Tests used:
hRBCs = test: Hemagglutination of washed human red blood cells; format: cell-based; details: for HA hRBC: hemagglutination, chimeric (xi) mAbs, Table 1
Protocol: Hemagglutination of hRBCs was assessed following incubation of hRBCs with various concentrations of chimeric and humanized VLX4, VLX8, and VLX9 mAbs in vitro essentially as described by Kikuchi et al. Biochem Biophys Res. Commun (2004) 315:912-918. Blood was obtained from healthy donors, diluted (1:50) in PBS/1 mM EDTA/BSA and washed 3 times with PBS/EDTA/BSA. hRBCs were added to U-bottomed 96 well plates with equal volumes of the antibodies (75 μl of each) and incubated for 3 hrs at 37° C. and overnight at 4° C.

Jurkat cells [1] = test: Phagocytosis of tumor cells by human macrophages; format: cell-based; details: 1 μg/ml mAb
Protocol: Human derived macrophages were derived from leukapheresis of healthy human peripheral blood and incubated in AIM-V media (Life Technologies) for 7-10 days. For the in vitro phagocytosis assay, macrophages were re-plated at a concentration of 1×10^4 cells per well in 100 ul of AIM-V media in a 96-well plate and allowed to adhere for 24 hrs. Once the effector macrophages adhered to the culture dish, the target human cancer cells (Jurkat) were labelled with 1 μM 5(6)-Carboxyfluorescein diacetate N-succinimidyl ester (CFSE; Sigma Aldrich) and added to the macrophage cultures at a concentration of 5×10^4 cells in […] of AIM-V media (5:1 target to effector ratio). VLX4, VLX8, and VLX9 CD47 mAbs (1 μg/ml) were added immediately upon mixture of target and effector cells and allowed to incubate at 37° C. for 2-3 hours. After 2-3 hrs, all non-phagocytosed cells were removed and the remaining cells washed three times with phosphate buffered saline (PBS; Sigma Aldrich). Cells were then trypsinized, collected into microcentrifuge tubes, and incubated in 100 ng of allophycocyanin (APC) labelled CD14 antibodies (BD Biosciences) for 30 minutes, washed once, and analyzed by flow cytometry (Accuri C6; BD Biosciences) for the percentage of CD14^+ cells that were also CFSE^+ indicating complete phagocytosis.

Jurkat cells [2] = test: Cell death by soluble mAb, annexin V / 7-AAD; format: cell-based, human; details: 1 μg/ml, 24 hrs
Protocol: Induction of cell death by soluble anti-CD47 mAbs is measured in vitro (Manna et al. (2003) J. Immunol. 107 (7): 3544-53, Kikuchi et al. Biochem Biophys Res. Commun. 315: 912-8, 2004), Pettersen et al. J. Immuno. 162: 7031-7040, 1999), Manna et al. Cancer Research, 64: 1026-1036, 2004). For the in vitro cell death assay, 1×10^5 transformed human T cells (Jurkat cells) were incubated with soluble humanized VLX4, VLX8, and VLX9 CD47 mAbs (1 μg/ml) for 24 hrs at 37° C. As cell death occurs, mitochondrial membrane potential is decreased, the inner leaflet of the cell membrane is inverted, exposing phosphatidylserines (PS), and propidium iodide (PI) or 7-aminoactinomycin D (7-AAD) is able to incorporate into nuclear DNA. In order to detect these cellular changes, cells were then stained with fluorescently labelled annexin V and PI or 7-aminoactinomycin D (7-AAD) (BD Biosciences) and the signal detected using an Accuri C6 flow cytometer (BD Biosciences). The increase in PS exposure is determined by measuring the percent increase in annexin V signal and the percent of dead cells by measuring the percent increase in PI or 7-AAD signal. Annexin V positive (annexin V^+) or annexin V positive/7-AAD negative (annexin V^+/7-AAD^−) cells are observed in early stages of cell death and annexin V positive/7-AAD positive (annexin V^+/7-AAD^+) cells are dead cells. […]

| Molecule | HA hRBC (hRBCs) | phagocytosis of Jurkat cells by human macrophages (Jurkat cells [1]) | PS exposure and cell death of Jurkat cells (annexin V^+, annexin V^+/7-AAD^−, annexin V^+/7-AAD^+) (Jurkat cells [2]) | visible hemagglutination of hRBCs (hRBCs; result in words, mAb concentrations from 50 μg/ml down) |
| --- | --- | --- | --- | --- |
| VLX4 IgG1 (xi): chimeric (murine-human) VLX4 anti-CD47 mAb, human IgG1 (antibody) heavy: EVQLQQSGPELVKPGASVKMSCKASGYTFTNYVIHWVKRRPGQGLEWIGYIYPYNDGILYNEKFKGKATVTSDKSSSTAYMDLSSLTSEDSAVYYCTRGGYYVPDYWGQGTTLTVSS[human IgG1 constant region not given here] light: DVLMTQTPLSLPVNLGDQASISCRSRQSIVHTNGNTYLGWFLQKPGQSPKLLIYKVSNRFSGVPDRFSGSGSGTDFTLTISRVEAEDLGVYYCFQGSHVPYTFGGGTKLEIKRTVAAPSVFIFPPSDEQLKSGTASVVCLLNNFYPREAKVQWKVDNALQSGNSQESVTEQDSKDSTYSLSSTLTLSKADYEKHKVYACEVTHQGLSSPVTKSFNRGEC | Yes | increased phagocytosis |  |  |
| VLX4 IgG1 N297Q (xi): chimeric VLX4 anti-CD47 mAb, human IgG1 N297Q (antibody) heavy: EVQLQQSGPELVKPGASVKMSCKASGYTFTNYVIHWVKRRPGQGLEWIGYIYPYNDGILYNEKFKGKATVTSDKSSSTAYMDLSSLTSEDSAVYYCTRGGYYVPDYWGQGTTLTVSS[human IgG1 constant region with changes not given here] light: DVLMTQTPLSLPVNLGDQASISCRSRQSIVHTNGNTYLGWFLQKPGQSPKLLIYKVSNRFSGVPDRFSGSGSGTDFTLTISRVEAEDLGVYYCFQGSHVPYTFGGGTKLEIKRTVAAPSVFIFPPSDEQLKSGTASVVCLLNNFYPREAKVQWKVDNALQSGNSQESVTEQDSKDSTYSLSSTLTLSKADYEKHKVYACEVTHQGLSSPVTKSFNRGEC | Yes | increased phagocytosis |  |  |
| VLX8 IgG1 N297Q (xi): chimeric VLX8 anti-CD47 mAb, human IgG1 N297Q (antibody) heavy: EVQLQQSGPELMKPGASVKISCKASGYSFTNYYIHWVNQSHGKSLEWIGYIDPLNGDTTYNQKFKGKATLTVDKSSSTAYMRLSSLTSADSAVYYCARGGKRAMDYWGQGTSVTVSS[human IgG1 constant region with changes not given here] light: DIQMTQTTSSLSASLGDRVTISCRASQDISNYLNWYQQKPDGTVKLLIYYTSRLYSGVPSRFSGSGSGTDYSLTISNLEQEDIATYFCQQGNTLPWTFGGGTKLEIKRTVAAPSVFIFPPSDEQLKSGTASVVCLLNNFYPREAKVQWKVDNALQSGNSQESVTEQDSKDSTYSLSSTLTLSKADYEKHKVYACEVTHQGLSSPVTKSFNRGEC | Yes | increase phagocytosis | induced increased PS exposure and cell death |  |
| VLX8 IgG4 PE (xi): chimeric VLX8 anti-CD47 mAb, human IgG4 PE (antibody) heavy: EVQLQQSGPELMKPGASVKISCKASGYSFTNYYIHWVNQSHGKSLEWIGYIDPLNGDTTYNQKFKGKATLTVDKSSSTAYMRLSSLTSADSAVYYCARGGKRAMDYWGQGTSVTVSSASTKGPSVFPLAPCSRSTSESTAALGCLVKDYFPEPVTVSWNSGALTSGVHTFPAVLQSSGLYSLSSVVTVPSSSLGTKTYTCNVDHKPSNTKVDKRV[human IgG4 Fc with changes not given here] light: DIQMTQTTSSLSASLGDRVTISCRASQDISNYLNWYQQKPDGTVKLLIYYTSRLYSGVPSRFSGSGSGTDYSLTISNLEQEDIATYFCQQGNTLPWTFGGGTKLEIKRTVAAPSVFIFPPSDEQLKSGTASVVCLLNNFYPREAKVQWKVDNALQSGNSQESVTEQDSKDSTYSLSSTLTLSKADYEKHKVYACEVTHQGLSSPVTKSFNRGEC | Yes | increased phagocytosis | induced increased PS exposure and cell death | caused visible hemagglutination |
| VLX9 IgG1 N297Q (xi): chimeric VLX9 anti-CD47 mAb, human IgG1 N297Q (antibody) heavy: QVQLQQFGAELAKPGASVQMSCKASGYTFTNYWIHWVKQRPGQGLEWIGYTDPRTDYTEYNQKFKDKATLAADRSSSTAYMRLSSLTSEDSAVYYCAGGGRVGLGYWGHGSSVTVSS[human IgG1 constant region with changes not given here] light: DVFMTQTPLSLPVSLGDQASISCRSSQNIVQSNGNTYLEWYLQKPGQSPKLLIYKVFHRFSGVPDRFSGSGSGTDFTLKISRVEAEDLGVYYCFQGSHVPWTFGGGTKVEIKRTVAAPSVFIFPPSDEQLKSGTASVVCLLNNFYPREAKVQWKVDNALQSGNSQESVTEQDSKDSTYSLSSTLTLSKADYEKHKVYACEVTHQGLSSPVTKSFNRGEC | Yes | increased phagocytosis |  |  |
| VLX9 IgG4 PE (xi): chimeric VLX9 anti-CD47 mAb, human IgG4 PE (antibody) heavy: QVQLQQFGAELAKPGASVQMSCKASGYTFTNYWIHWVKQRPGQGLEWIGYTDPRTDYTEYNQKFKDKATLAADRSSSTAYMRLSSLTSEDSAVYYCAGGGRVGLGYWGHGSSVTVSSASTKGPSVFPLAPCSRSTSESTAALGCLVKDYFPEPVTVSWNSGALTSGVHTFPAVLQSSGLYSLSSVVTVPSSSLGTKTYTCNVDHKPSNTKVDKRV[human IgG4 Fc with changes not given here] light: DVFMTQTPLSLPVSLGDQASISCRSSQNIVQSNGNTYLEWYLQKPGQSPKLLIYKVFHRFSGVPDRFSGSGSGTDFTLKISRVEAEDLGVYYCFQGSHVPWTFGGGTKVEIKRTVAAPSVFIFPPSDEQLKSGTASVVCLLNNFYPREAKVQWKVDNALQSGNSQESVTEQDSKDSTYSLSSTLTLSKADYEKHKVYACEVTHQGLSSPVTKSFNRGEC | Yes | increased phagocytosis |  |  |
| VLX9 IgG1 (xi): chimeric VLX9 anti-CD47 mAb, human IgG1 (antibody) heavy: QVQLQQFGAELAKPGASVQMSCKASGYTFTNYWIHWVKQRPGQGLEWIGYTDPRTDYTEYNQKFKDKATLAADRSSSTAYMRLSSLTSEDSAVYYCAGGGRVGLGYWGHGSSVTVSS[human IgG1 constant region not given here] light: DVFMTQTPLSLPVSLGDQASISCRSSQNIVQSNGNTYLEWYLQKPGQSPKLLIYKVFHRFSGVPDRFSGSGSGTDFTLKISRVEAEDLGVYYCFQGSHVPWTFGGGTKVEIKRTVAAPSVFIFPPSDEQLKSGTASVVCLLNNFYPREAKVQWKVDNALQSGNSQESVTEQDSKDSTYSLSSTLTLSKADYEKHKVYACEVTHQGLSSPVTKSFNRGEC | Yes |  |  |  |
